According to the supplement of paper PMC3334620:
Over roughly 33,000 sequences, “E-score (-0.5 to 0.5)” has its median near -0.056; the highest 2% begin near 0.38. The list shows a part of the results.

Molecular target: Stb4 (UniProt P50104)
Experiment: PBM E-score (8-mer binding enrichment) (E-score (-0.5 to 0.5)); higher = stronger / more preferred TF binding; most listed sequences are background and not binding sites
Conditions: protein concentration: 200 nM; construct: GST-DNA-binding domain
Outline: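 The E-score, a modified Wilcoxon-Mann-Whitney statistic, was computed by the Universal PBM Analysis Suite for every ungapped eight-base word pooled with its reverse complement. Scans behind it were normalised with masliner after bound GST-tagged yeast transcription factors were detected with fluorescent anti-GST. The proteins, at about 100-200 nM, had been applied to universal all-10-mer Agilent arrays made double-stranded by primer extension.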

Row | Sequence | PBM E-score
1 | ACAAGACT | -0.144
2 | CCCAGGGG | -0.298
3 | GGTAGCCA | 0.0206
4 | CAGGATAC | -0.198
5 | AATCATAT | -0.0393
6 | CTGTGTAA | -0.165
7 | TAGGGAAA | -0.185
8 | AAGCCTCC | -0.152
9 | GTGACAAC | 0.00513
10 | CTTTCATA | 0.00582
11 | AAAATAGG | 0.0861
12 | CCGGCGCC | 0.218
13 | GAGATGAA | 0.0136
14 | GCTAGAGA | -0.149
15 | ACGGTTCG | 0.173
16 | CGACTCTC | 0.0134
17 | GAAAGACC | 0.148
18 | CTTGATTA | -0.203
19 | ATAGAGTG | 0.00353
20 | CTATATCA | -0.0348
21 | GGTGGACA | -0.00582
22 | AAATTCGG | 0.389

Row | Sequence | PBM E-score
23 | AAAATGTA | -0.0261
24 | ACGTTCGA | -0.284
25 | AGATGAAC | -0.0339
26 | ATGACCAG | -0.0765
27 | ATGTACAC | -0.186
28 | CCCGGGGC | 0.239
29 | CCCTGACG | -0.0312
30 | CACGCGGA | 0.227
31 | GAACCATC | 0.0577
32 | GCGGATAA | 0.403
33 | AACTCAGT | -0.091
34 | GACCAAAA | -0.0214
35 | TACACAAA | 0.0542
36 | CCACCCAG | -0.0329
37 | AACTACAC | -0.128
38 | CCGCCAAA | 0.12
39 | AATAGCTA | -0.00017
40 | CCTGTGAA | -0.125
41 | GCTCTTAA | -0.105
42 | GGGGTAGA | -0.00576
43 | GTATGGAA | -0.0916
44 | GATAGTCA | -0.0515

Row | Sequence | PBM E-score
45 | ATCTATAA | -0.0984
46 | AAAGCATA | 0.0507
47 | CATATTCC | 0.138
48 | CAGGTACA | -0.102
49 | GGGCTCCA | -0.32
50 | CTTCGAGC | 0.147
51 | AAAATCTC | -0.0526
52 | GCCAAGAC | -0.268
53 | CTGACCAC | -0.0941
54 | ATTCGCCA | -0.0151
55 | ATTGGCTG | -0.167
56 | GGATTCAC | 0.0333
57 | AGGCCTCC | -0.095
58 | CGGCTCAA | 0.258
59 | TATTGTAA | -0.174
60 | TCACCTCA | -0.236
61 | AGCCCTAG | -0.194
62 | GCTAACCA | 0.00902
63 | CGTGATGA | -0.235
64 | ATGCTAAT | -0.149
65 | CATTAAAA | 0.105
66 | GGAGGCCC | -0.0916

Row | Sequence | PBM E-score
67 | CGCCGGGC | 0.211
68 | AAGTCGCT | -0.13
69 | GAGCTTAC | 0.0515
70 | GTTACTAA | -0.00315
71 | CTGTTCGC | -0.109
72 | CTGGGGTA | -0.16
73 | GCCCACCC | 0.209
74 | ATACCGTA | 0.0819
75 | GGGTCTAA | -0.0158
76 | GTCGGGTA | 0.445
77 | CTTAGATA | -0.191
78 | AATCGCCT | 0.0262
79 | ATGGCCAT | 0.0174
80 | AACGCTCG | 0.0556
81 | CCAAACTC | -0.0175
82 | ACCCGCGC | 0.271
83 | CGACCTAC | -0.0695
84 | GATGGGGC | -0.135
85 | GGCCTACA | -0.0926
86 | AAAATCGC | -0.0557
